Test results taken from PubChem BioAssay AID540267 (National Center for Advancing Translational Sciences (NCATS), 2011).
Hit rate of the full screen: of about 340,000 compounds, about 530 (0.16%) were called active. The shares of active, inactive and inconclusive entries below differ from those in the screen. Rule as the data show it: active = activity change below about -80%; inconclusive = between about -30% and that limit; inactive = weaker than that.

Experiment: Small Molecules that selectively kill Giardia lamblia: qHTS;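 also: parasites exposed to compound for two days anaerobically before the ATP read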
Conditions: Giardia lamblia trophozoite viability; at 7.66 µM; active compounds read low
In short: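 Each well holds 100 Giardia trophozoites and compound. After two days (48 hrs) at 37 deg C in anaerobic conditions, ATP is quantified by luminescence.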
% is scaled to controls: 0 for no effect and ±100 for the full control effect.

With `CC(C)c1ccc(-c2nnc(N)s2)cc1` as the molecule, how does the activity change read?
Its activity change is inconclusive: -30.7% [inhibitor].

With `C=CCn1c(COc2ccccc2)nc2ccccc21` as the molecule, how does the activity change read?
Its activity change is inactive: -0.227%.

For `CCC(=O)NC(=S)Nc1cccc(NC(=O)c2ccco2)c1`, which activity change is on record?
Its activity change is inconclusive: -30.9% [inhibitor].

For `Cc1ccc(NC(=O)CN2CCCN(S(=O)(=O)c3ccc(Br)s3)CC2)cc1`, which activity change is on record?
The activity change was inactive: 4.43%.

With `CN1C(=O)/C(=C/c2cccc(Cl)c2)Sc2ccc(C(=O)N3CCCC3)cc21` as the molecule, how does the activity change read?
The activity change was inconclusive: -50.2% [inhibitor].

Which activity change does the source give for `O=C(NCCN1CCOCC1)c1cnn2c1NC(c1cccs1)CC2C(F)(F)F` (stereo not drawn) here?
The activity change was inconclusive: -35.9% [inhibitor].

For `O=C(NCCc1ccc(F)cc1)c1coc(=O)c(Br)c1`, which activity change is on record?
Its activity change is inactive: 24.9%.

With `CCc1ccc(-c2cn3c(n2)SCC3)cc1` as the molecule, how does the activity change read?
The activity change was inconclusive: -30.8% [inhibitor].

Which activity change does the source give for `N/C(=N\O)c1ccc([N+](=O)[O-])s1` here?
Its activity change is active: -88.2%.

With `CC(C)Oc1ccc(C(CC(=O)O)NC(=O)C(Sc2ccccc2)c2ccccc2)cc1` (stereo not drawn) as the molecule, how does the activity change read?
The activity change was inconclusive: -41.1% [inhibitor].

Which activity change does the source give for `Cn1cc(CN2CCCC(C(=O)c3ccc(-c4ccccc4)c(F)c3)C2)cn1` (stereo not drawn) here?
The activity change was inactive: -9.11%.

For `CC(c1nnnn1C(C)(C)C)N(Cc1cccnc1)Cc1ccccc1Cl` (stereo not drawn), which activity change is on record?
The activity change was inactive: 6.09%.

With `O=S1(=O)CCO[C@H]2Cc3ccccc3[C@H]2N1Cc1ccc(Cl)cc1` as the molecule, how does the activity change read?
Its activity change is inconclusive: -36.3% [inhibitor].

With `CC1CCCN(C(=O)c2cc3c(-c4ccc(Cl)cc4)nn(C)c3s2)C1` (stereo not drawn) as the molecule, how does the activity change read?
The activity change was inactive: 4.8%.

With `Cc1ccc(C(O)c2ccncc2)cc1` (stereo not drawn) as the molecule, how does the activity change read?
Its activity change is inactive: 21.1%.

For `CCOC(=O)N1CCC(Nc2c(Nc3cccc(CC)c3)c(=O)c2=O)CC1`, which activity change is on record?
The activity change was inactive: -10.6%.

For `O=C(COC(=O)CC1CCCC1)Nc1cc2c(cc1Cl)C(=O)c1ccccc1C2=O`, which activity change is on record?
The activity change was inconclusive: -31.6% [inhibitor].

With `COc1ccc(N2CCN(S(=O)(=O)c3c(C)nc4sccn4c3=O)CC2)cc1` as the molecule, how does the activity change read?
Its activity change is inconclusive: -37.5% [inhibitor].

Which activity change does the source give for `CN(/N=C/c1ccccc1O)C(=S)c1ccccc1` here?
The activity change was inactive: 13.5%.

Which activity change does the source give for `Cc1nnc(SC(C(=O)Nc2cc(Cl)cc(Cl)c2)c2ccccc2)[nH]c1=O` (stereo not drawn) here?
The activity change was inactive: 24.1%.

For `O=C(NCc1ccccc1)c1cccc(COc2ccc(Cl)cc2)c1`, which activity change is on record?
The activity change was inactive: 10.2%.

Which activity change does the source give for `NC(=S)N/N=C/c1cc([N+](=O)[O-])ccc1OCCOc1ccccc1` here?
The activity change was inactive: -1.64%.

For `CC1CC(C)C(=O)C(C(CC2CC(=O)NC(=O)C2)OC(=O)CC(=O)c2ccccc2)C1` (stereo not drawn), which activity change is on record?
The activity change was inconclusive: -52.3% [inhibitor].

For `CN(C)C(=O)c1ccc(NC(=O)CC2SC(N3CCCC3)=NC2=O)cc1` (stereo not drawn), which activity change is on record?
Its activity change is inactive: 6.49%.

Which activity change does the source give for `CSc1ccccc1-c1nnc(-c2ccccc2)o1` here?
The activity change was inconclusive: -30.1% [inhibitor].

Which activity change does the source give for `CCOc1cc(C(=O)N2CCN(C/C=C/c3ccccc3)CC2)cc(OCC)c1OCC` here?
The activity change was inactive: 7.5%.

For `O=C(Nc1ccc2nn(-c3ccccc3)nc2c1)c1ccc2c(c1)OCCO2`, which activity change is on record?
Its activity change is inactive: -12.3%.

For `CN(/N=C/c1ccc([N+](=O)[O-])o1)c1ccccc1`, which activity change is on record?
The activity change was inconclusive: -34.6% [inhibitor].

Which activity change does the source give for `CC1CCN(C(=O)c2cc(Cl)nc3ccccc23)CC1` here?
Its activity change is inconclusive: -34.1% [inhibitor].

For `O=C(Nc1cccc(Cl)c1)Nc1nnc(CSCCOc2ccc(Cl)cc2)s1`, which activity change is on record?
Its activity change is inactive: -7.93%.

For `Cc1ccccc1NC(=O)C1CCCN(S(=O)(=O)c2cnc[nH]2)C1` (stereo not drawn), which activity change is on record?
The activity change was inconclusive: -31.6% [inhibitor].

With `O=C(Nc1cc(Cl)ccc1-n1cncn1)c1ccc([N+](=O)[O-])o1` as the molecule, how does the activity change read?
The activity change was inconclusive: -52.6% [inhibitor].

With `Cc1ccc(CNC(=S)Nc2cc(C)ccc2OC(F)F)cc1` as the molecule, how does the activity change read?
Its activity change is inactive: 2.21%.

Which activity change does the source give for `COc1ccc(NC(=S)Nc2cccc(C(C)=O)c2)cc1OC` here?
The activity change was inconclusive: -31.9% [inhibitor].

With `Cc1cc(C)n2nc(C(=O)Nc3ccc4c(c3)OCCO4)nc2n1` as the molecule, how does the activity change read?
Its activity change is inconclusive: -34.5% [inhibitor].

For `CC1C/C(=C\c2ccccc2[N+](=O)[O-])c2nc3ccccc3c(C(=O)O)c2C1` (stereo not drawn), which activity change is on record?
The activity change was inactive: -9.35%.

Which activity change does the source give for `CCCC(=O)N1CCN(c2ccc(NC(=O)c3ccc(N4CCCC4)c([N+](=O)[O-])c3)cc2Cl)CC1` here?
The activity change was inactive: 2.72%.

For `CN(Cc1ccccc1)C(=O)CCC1CCN(S(C)(=O)=O)CC1`, which activity change is on record?
The activity change was inconclusive: -30.8% [inhibitor].

Which activity change does the source give for `Fc1ccc(-c2ccnc(=S)[nH]2)cc1` here?
Its activity change is inactive: 3.63%.

With `COCC1CCCN(C(=O)c2ccc3oc(Cc4ccc(Cl)cc4)nc3c2)C1` (stereo not drawn) as the molecule, how does the activity change read?
Its activity change is inconclusive: -33.7% [inhibitor].

With `NC(=O)C1(Nc2ccc(-c3ccc(Cl)cc3)cc2)CCCC1` as the molecule, how does the activity change read?
Its activity change is inconclusive: -55.7% [inhibitor].

Which activity change does the source give for `CCCc1nc(SCC(=O)Nc2nccs2)c2ccccc2n1` here?
Its activity change is inconclusive: -35.1% [inhibitor].

With `O=[N+]([O-])c1nn(-c2ccc3c(c2)OCCO3)n(O)c1=Nc1ccc(Cl)cc1` as the molecule, how does the activity change read?
Its activity change is inconclusive: -63.5% [inhibitor].

Which activity change does the source give for `Cc1ccc(C(=O)O)cc1NC(=S)NC(=O)c1ccc(-c2ccccc2)cc1` here?
Its activity change is inconclusive: -72.5% [inhibitor].

For `CN(C)c1nc(NC(C)(C)C)nc(SCC(=O)Nc2ccccc2)n1`, which activity change is on record?
Its activity change is inactive: -25%.

Which activity change does the source give for `Cc1cnc(NC(=O)c2ccc(OCC3CCCO3)cc2)s1` (stereo not drawn) here?
The activity change was inconclusive: -60.9% [inhibitor].

For `COc1ccccc1N1CCN(/N=C/c2ccc(OC)c(OC)c2OC)CC1`, which activity change is on record?
Its activity change is inconclusive: -32.2% [inhibitor].

For `Cc1cn([C@H]2C[C@H](O)[C@@H](COS(=O)(=O)O)O2)c(=O)[nH]c1=O`, which activity change is on record?
Its activity change is inconclusive: -31.5% [inhibitor].

Which activity change does the source give for `CCCN(CCC)C(=S)NC1CC2C=CC1C2` (stereo not drawn) here?
The activity change was inconclusive: -43.6% [inhibitor].

Which activity change does the source give for `COc1ccccc1OCC(=O)N/N=C/C=C/c1ccc([N+](=O)[O-])o1` here?
The activity change was inconclusive: -44.2% [inhibitor].

With `COC(=O)c1cc(=O)nc2scc(C)n12` as the molecule, how does the activity change read?
The activity change was inactive: -20.6%.

Which activity change does the source give for `COc1ccc(/C=N/Nc2ccccn2)cc1OC` here?
Its activity change is inactive: 0.441%.

For `NNC(=O)/C(=N/Nc1ccccc1)S(=O)(=O)c1ccc(Cl)cc1`, which activity change is on record?
The activity change was inactive: 6.77%.
